# Measured values published in PubChem BioAssay (Tox21).
# Several values for one entry are separate records, joined by “and”; a condition that tells them apart may be missing. Equal entries are not always repeated. The inconclusive results got no clear call from the source; some entries with a clear call stand among them for comparison. For part of these data: Where the call is inconclusive, the potency comes from a doubtful curve fit. Activity calls are given as the source filed them. Unless noted, calls follow the shape of the dose curve; as a rule, active = well fitted curve in the direction sought with a large enough effect in the repeat runs; inconclusive = weak or mixed curves; inactive = no such curve, though single readings can be large; an effect the other way counts as inactive or inconclusive.
# Key:
# [1] = target: Vitamin D3 receptor (Homo sapiens) (UniProt P11473); experiment: qHTS assay to identify small molecule agonists of the vitamin D receptor (VDR) signaling pathway (AID 743222; calls by dose curve; also: % is scaled to controls: 0 for no effect and ±100 for the full control effect); details: HEK293T VDR-UAS-bla, beta-lactamase FRET ratio, 16 h; activation: at 63.5 µM (top of the series) unless noted
# Procedure, shortened: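 Cells carrying a VDR-driven beta-lactamase reporter are seeded at 2,000 per well and rested 4 h. Compounds in DMSO are added for 16 h at 37C, and FRET substrate fluorescence is measured after 2 h at room temperature.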
# [2] = target: Luciferin 4-monooxygenase (Photinus pyralis) (UniProt P08659); experiment: qHTS assay to identify small molecule inhibitors of firefly luciferase (AID 1224835); also: nearly all actives have a fitted effect of over 25% in size; also: potency is read from the fitted curve at half-maximal effect
# Procedure, shortened: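 Inhibition of purified Photinus luciferase is measured by luminescence. Substrate levels (D-luciferin, ATP) sit at their KM values. Each compound is tested in a concentration series.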
# [3] = Human pregnane X receptor (PXR) small molecule agonists, qHTS cell viability counter screen (AID 1346977); also: nearly all actives have a fitted effect of over 50% in size; also: potency is read from the fitted curve at half-maximal effect; as to activity change, negative = cytotoxicity: % is scaled to controls: 0 for no effect and ±100 for the full control effect
# Procedure, shortened: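 Cytotoxicity counter screen run in the same wells as the PXR luciferase assay, using PXR-Luc HepG2 cells in charcoal-stripped serum medium. Viability: CellTiter-Fluor fluorescence after 24hr compound treatment.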
# [4] = qHTS assay for identifying genotoxic compounds that show differential cytotoxicity against isogenic chicken DT40 cell lines with known DNA damage response pathways - Rad54/Ku70 mutant cell line (AID 743015); details: DT40 Rad54/Ku70 mutant viability, CellTiter-Glo, 40 h; activity change, negative = cytotoxicity: at 66.8 µM (top of the series) unless noted; also: nearly all actives have a fitted effect of over 60% in size; also: potency is read from the fitted curve at half-maximal effect
# [5] = target: Peroxisome proliferator-activated receptor delta (Homo sapiens) (UniProt Q03181); experiment: qHTS assay to identify small molecule agonists of the peroxisome proliferator-activated receptor delta (PPARd) signaling pathway (AID 743212; calls by dose curve;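 also: HEK293H cells with PPARd UAS beta-lactamase reporter GeneBLAzer system; % is scaled to controls: 0 for no effect and ±100 for the full control effect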); details: HEK293H PPARd-UAS-bla, beta-lactamase FRET ratio, 17 h; activation: at 62.6 µM (top of the series) unless noted
# Procedure, shortened: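 Steps: seed PPARd-bla HEK293H cells; incubate 5 h, 37 C, 5% CO2; add compounds in DMSO; incubate, 37 C; add LiveBLAzer B/G FRET substrate; hold 2 h at room temperature; measure fluorescence.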
# [6] = qHTS assay to identify small molecule antagonists of the peroxisome proliferator-activated receptor delta (PPARd) signaling pathway - cell viability counter screen (AID 743213); details: PPARd-bla HEK293H viability, CellTiter-Glo luminescence, 17 h; viability change, negative = cytotoxic: at 62 µM (top of the series) unless noted; also: potency is read from the fitted curve at half-maximal effect; nearly all actives have a fitted effect of over 50% in size
# Procedure, shortened: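 In this counter screen, HEK293H cells carrying a UAS-beta-lactamase reporter are co-treated with test compounds and 300 nM L165041 (final) for 17 h at 37 C; cell viability is quantified by CellTiter-Glo luminescence.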
# [7] = qHTS assay to identify small molecule agonists of the constitutive androstane receptor (CAR) signaling pathway - cell viability counter screen (AID 1224836); also: nearly all actives have a fitted effect of over 45% in size; also: potency is read from the fitted curve at half-maximal effect
# Procedure, shortened: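 Cells were seeded and incubated 4 hrs. Compounds were added across 15 concentrations together with PK11195 at 0.75 uM final. Plates were incubated 23 hrs at 37 C. CellTiter-Fluor was added and fluorescence measured.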
# [8] = qHTS RealTime-Glo MT Cell Viability Assay in HEK293 cells - 8 hour (AID 1224887); also: potency is read from the fitted curve at half-maximal effect; nearly all actives have a fitted effect of over 50% in size
# Procedure, shortened: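 Real-time viability in HEK293: signal arises when living cells convert a prosubstrate for NanoLuc in the medium, so luminescence tracks viable cell number. Compound (23 nL, DMSO) added 5 h post-seeding; kinetic reads at 0–40 h, 37 C.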
# [9] = qHTS assay to identify small molecule antagonists of the sonic hedgehog signaling (Shh) pathway (AID 1259369; calls by dose curve; also: potency is read from the fitted curve at half-maximal effect; nearly all actives have a fitted effect of over 45% in size)
# Procedure, shortened: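 Cells are plated and held 4hr at 37 C, compounds (DMSO) are pinned in, conditioned medium is added to stimulate the pathway, and after 24hr luciferase reagent is added for 30min before luminescence is read.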
# [10] = qHTS assay to identify small molecule agonists of the estrogen receptor beta (ER-beta) signaling pathway - cell viability counter screen (AID 1259380); also: potency is read from the fitted curve at half-maximal effect; nearly all actives have a fitted effect of over 30% in size
# Procedure, shortened: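 Cytotoxicity is measured in parallel with the reporter screen: after 16 hr compound exposure at 37C and a 2 hr LiveBLAzer step, CellTiter-Glo is added to the same ER-beta-UAS-bla HEK293T wells and luminescence read after 30 min.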
# [11] = qHTS assay to identify small molecule antagonists of the progesterone receptor (PR) signaling pathway - cell viability counter screen (AID 1346798); also: nearly all actives have a fitted effect of over 50% in size; also: potency is read from the fitted curve at half-maximal effect
# Procedure, shortened: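 Counter screen for cytotoxicity: viability of PR-UAS-bla HEK293T cells was measured with CellTiter-Glo luminescence following 16 hr compound exposure in the presence of R5020.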
# [12] = target: Estrogen receptor beta (Homo sapiens) (UniProt Q92731); experiment: qHTS assay to identify small molecule agonists of the estrogen receptor beta (ER-beta) signaling pathway (AID 1259377; active = well fitted activation curve with a large enough effect in the signal ratio in the repeat runs, not every such curve was filed as active; inconclusive = weak or mixed curves, or effect the other way; the % refers to the signal ratio; also: % is scaled to controls: 0 for no effect and ±100 for the full control effect); details: ER-beta-UAS-bla HEK293T, beta-lactamase FRET ratio, 16 h; activation: at 92.4 µM (top of the series) unless noted
# Procedure, shortened: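 Agonist mode cell assay in GripTite HEK293T cells expressing an ER-beta fusion that drives beta-lactamase from an Upstream Activator Sequence; 16 hr compound exposure at 37C, then 2 h LiveBLAzer B/G FRET substrate at room temperature, fluorescence read-out.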
# [13] = qHTS RealTime-Glo MT Cell Viability Assay in HEK293 cells - 32 hour (AID 1224868)
# Procedure, shortened: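 Luminescence generated by NanoLuc from substrate produced by living HEK293 cells served as the viability signal. Each value reflects the reading at its stated time point during continuous 40 h compound exposure at 37 C.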
# [14] = target: Estrogen receptor (Homo sapiens) (UniProt P03372); experiment: qHTS assay to identify small molecule antagonists of the estrogen receptor alpha (ER-alpha) signaling pathway (AID 743069; active = well fitted curve in the direction sought with a large enough effect in the signal ratio in the repeat runs, not every such curve was filed as active; inconclusive = weak or mixed curves, or effect the other way; inactive = no such curve, though single readings can be large or run the other way; the % refers to the signal ratio; also: potency is read from the fitted curve at half-maximal effect); details: HEK293 ER-alpha-UAS-bla, beta-lactamase ratio, antagonist mode; activity, negative = inhibition: at 69.4 µM (top of the series) unless noted
# Procedure, shortened: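 Fluorescence intensity from a beta-lactamase FRET substrate served as the read-out. Cells: HEK293 with stably integrated ER-alpha-UAS-bla reporter. Agonist 17beta-estradiol was co-added with compounds; incubation 18 hr at 37C, substrate 2 hr at room temperature.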
# [15] = qHTS assay to identify small molecule antagonists of the estrogen receptor alpha (ER-alpha) signaling pathway - cell viability counter screen (AID 743074; calls by dose curve; also: nearly all actives have a fitted effect of over 45% in size; also: potency is read from the fitted curve at half-maximal effect)
# [16] = target: Nuclear receptor subfamily 1 group I member 3 (Homo sapiens) (UniProt Q14994); experiment: qHTS assay to identify small molecule agonists of the constitutive androstane receptor (CAR) signaling pathway (AID 1224839); also: potency is read from the fitted curve at half-maximal effect; nearly all actives have a fitted effect of over 15% in size
# Procedure, shortened: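 Cells were plated and incubated 4 hrs, then dosed with compounds at 15 concentrations. PK11195 was added to 0.75 uM final. After 24 hrs at 37 C, luciferase luminescence was measured.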
# [17] = qHTS assay to identify small molecule agonists of H2AX (AID 1224845; active = well fitted activation curve with a large enough effect in the signal ratio in the repeat runs, not every such curve was filed as active; inconclusive = weak or mixed curves; the % refers to the signal ratio; also: potency is read from the fitted curve at half-maximal effect); details: CHO-K1 phospho-H2AX Ser139 HTRF, 3 h; activation (H2AX phosphorylation): at 154 µM (top of the series) unless noted
# Procedure, shortened: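 Phospho-H2AX Ser139 measured by HTRF (ex 320 nm; em 665 and 620 nm) after 24 hr antibody incubation. Compounds, 15 concentrations, 0.76% DMSO, were applied to CHO-K1 cells for 3hr at 37C before lysis.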
# [18] = qHTS assay to identify small molecule agonists of H2AX - cell viability counter screen (AID 1224847; calls by dose curve; also: potency is read from the fitted curve at half-maximal effect; nearly all actives have a fitted effect of over 30% in size)
# Procedure, shortened: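 Cytotoxicity counter screen in wild-type CHO-K1 cells: a 3 hr compound treatment at 37C across 15 concentrations, followed by CellTiter-Glo luminescence to gauge viable cells.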
# [19] = target: Cytochrome P450 2D6 (Homo sapiens) (UniProt P10635); experiment: Cytochrome P450 Family 2 Subfamily D Member 6 (CYP2D6) small molecule antagonists: luciferase reporter qHTS assay (AID 1671196)
# Procedure, shortened: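 Enzyme and proluciferin substrate were first combined with test chemical for 10 min at room temperature. Adding NADPH regeneration solution started a 1 h reaction, stopped with luciferin detection reagent and read by luminescence 20 min later.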
# Tags tell the direction and shape of the fitted curve or compound fluorescence and quenching.
# Sequence of UniProt P08659 (P08659 whole entry, looked up): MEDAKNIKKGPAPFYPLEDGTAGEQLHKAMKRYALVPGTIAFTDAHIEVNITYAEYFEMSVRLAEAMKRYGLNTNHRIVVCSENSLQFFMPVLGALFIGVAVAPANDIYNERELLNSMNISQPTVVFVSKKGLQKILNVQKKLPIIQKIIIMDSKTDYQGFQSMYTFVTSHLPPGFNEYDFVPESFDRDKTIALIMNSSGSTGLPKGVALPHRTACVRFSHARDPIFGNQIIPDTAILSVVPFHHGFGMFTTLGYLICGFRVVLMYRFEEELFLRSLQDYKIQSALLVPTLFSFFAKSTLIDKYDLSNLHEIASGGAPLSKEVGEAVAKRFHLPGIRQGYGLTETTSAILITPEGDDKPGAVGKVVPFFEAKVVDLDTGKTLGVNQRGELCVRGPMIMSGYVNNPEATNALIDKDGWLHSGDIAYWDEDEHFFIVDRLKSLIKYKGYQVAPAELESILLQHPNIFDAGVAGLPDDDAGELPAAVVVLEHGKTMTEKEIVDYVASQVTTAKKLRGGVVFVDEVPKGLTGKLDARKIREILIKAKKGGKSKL
# Sequence of UniProt Q03181 (Q03181 whole entry, looked up): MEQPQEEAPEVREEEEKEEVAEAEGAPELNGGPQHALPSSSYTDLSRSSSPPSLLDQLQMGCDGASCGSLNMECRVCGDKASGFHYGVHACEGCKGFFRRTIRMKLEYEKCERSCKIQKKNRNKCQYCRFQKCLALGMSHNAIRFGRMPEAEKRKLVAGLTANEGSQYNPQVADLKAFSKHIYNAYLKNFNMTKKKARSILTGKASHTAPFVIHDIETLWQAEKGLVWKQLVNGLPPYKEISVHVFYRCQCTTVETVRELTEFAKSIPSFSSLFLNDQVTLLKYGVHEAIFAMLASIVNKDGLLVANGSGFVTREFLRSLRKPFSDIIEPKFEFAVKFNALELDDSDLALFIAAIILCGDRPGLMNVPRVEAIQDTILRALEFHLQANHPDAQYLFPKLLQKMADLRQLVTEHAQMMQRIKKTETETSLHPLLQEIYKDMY
# Sequence of UniProt P11473 (P11473 whole entry, looked up): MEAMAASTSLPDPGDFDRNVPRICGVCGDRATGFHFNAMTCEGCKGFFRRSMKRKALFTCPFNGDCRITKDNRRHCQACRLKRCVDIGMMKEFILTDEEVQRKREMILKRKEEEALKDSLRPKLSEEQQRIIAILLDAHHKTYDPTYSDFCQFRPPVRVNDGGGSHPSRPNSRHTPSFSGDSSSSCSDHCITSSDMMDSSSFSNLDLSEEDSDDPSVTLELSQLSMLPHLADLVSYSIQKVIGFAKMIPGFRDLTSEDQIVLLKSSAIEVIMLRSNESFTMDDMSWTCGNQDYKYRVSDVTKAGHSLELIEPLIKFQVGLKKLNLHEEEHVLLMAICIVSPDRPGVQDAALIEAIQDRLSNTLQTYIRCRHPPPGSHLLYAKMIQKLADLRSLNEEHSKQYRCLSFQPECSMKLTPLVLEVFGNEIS
# Sequence of UniProt Q14994 (Q14994 whole entry, looked up): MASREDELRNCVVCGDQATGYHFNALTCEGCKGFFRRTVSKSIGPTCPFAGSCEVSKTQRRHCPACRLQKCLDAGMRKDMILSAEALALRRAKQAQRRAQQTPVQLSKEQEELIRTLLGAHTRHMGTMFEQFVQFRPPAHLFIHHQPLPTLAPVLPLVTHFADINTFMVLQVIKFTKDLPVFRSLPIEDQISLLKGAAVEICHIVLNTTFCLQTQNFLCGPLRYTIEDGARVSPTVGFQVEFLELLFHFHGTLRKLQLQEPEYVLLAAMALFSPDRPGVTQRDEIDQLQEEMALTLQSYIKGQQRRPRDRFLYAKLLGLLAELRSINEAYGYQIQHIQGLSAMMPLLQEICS
# Sequence of UniProt P10635 (P10635 whole entry, looked up): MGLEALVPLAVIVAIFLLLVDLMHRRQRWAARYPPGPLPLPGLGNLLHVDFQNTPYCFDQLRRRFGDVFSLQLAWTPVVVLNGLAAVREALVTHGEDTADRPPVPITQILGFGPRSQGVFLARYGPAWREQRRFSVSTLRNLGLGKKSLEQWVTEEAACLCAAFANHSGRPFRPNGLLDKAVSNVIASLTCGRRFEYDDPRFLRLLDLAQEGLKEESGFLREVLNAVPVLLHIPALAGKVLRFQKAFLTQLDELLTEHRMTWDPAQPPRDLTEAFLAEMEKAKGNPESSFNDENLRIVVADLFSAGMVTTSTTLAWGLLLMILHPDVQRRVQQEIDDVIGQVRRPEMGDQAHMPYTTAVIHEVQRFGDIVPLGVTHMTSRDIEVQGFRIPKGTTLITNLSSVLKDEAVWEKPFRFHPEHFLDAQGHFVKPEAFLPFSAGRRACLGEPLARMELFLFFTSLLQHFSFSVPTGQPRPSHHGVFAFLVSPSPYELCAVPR
# Sequence of UniProt P03372 (P03372 whole entry, looked up): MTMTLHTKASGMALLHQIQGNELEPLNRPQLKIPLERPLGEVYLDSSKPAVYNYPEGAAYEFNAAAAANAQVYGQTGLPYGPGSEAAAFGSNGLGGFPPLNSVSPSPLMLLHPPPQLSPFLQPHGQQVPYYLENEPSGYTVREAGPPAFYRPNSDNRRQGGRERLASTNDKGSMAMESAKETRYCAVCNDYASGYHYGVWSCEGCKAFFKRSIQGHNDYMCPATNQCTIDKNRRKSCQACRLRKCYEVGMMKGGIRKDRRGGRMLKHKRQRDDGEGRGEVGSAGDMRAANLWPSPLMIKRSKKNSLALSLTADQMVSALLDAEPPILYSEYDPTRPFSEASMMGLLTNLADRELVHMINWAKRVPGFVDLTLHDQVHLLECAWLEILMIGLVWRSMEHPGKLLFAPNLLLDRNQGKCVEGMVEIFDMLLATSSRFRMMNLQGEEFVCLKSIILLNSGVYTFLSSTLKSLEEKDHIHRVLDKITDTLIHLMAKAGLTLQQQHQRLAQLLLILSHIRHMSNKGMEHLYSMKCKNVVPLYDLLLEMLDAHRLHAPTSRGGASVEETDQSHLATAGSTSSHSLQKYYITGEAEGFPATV
# Sequence of UniProt Q92731 (Q92731 whole entry, looked up, the tested form may be a part): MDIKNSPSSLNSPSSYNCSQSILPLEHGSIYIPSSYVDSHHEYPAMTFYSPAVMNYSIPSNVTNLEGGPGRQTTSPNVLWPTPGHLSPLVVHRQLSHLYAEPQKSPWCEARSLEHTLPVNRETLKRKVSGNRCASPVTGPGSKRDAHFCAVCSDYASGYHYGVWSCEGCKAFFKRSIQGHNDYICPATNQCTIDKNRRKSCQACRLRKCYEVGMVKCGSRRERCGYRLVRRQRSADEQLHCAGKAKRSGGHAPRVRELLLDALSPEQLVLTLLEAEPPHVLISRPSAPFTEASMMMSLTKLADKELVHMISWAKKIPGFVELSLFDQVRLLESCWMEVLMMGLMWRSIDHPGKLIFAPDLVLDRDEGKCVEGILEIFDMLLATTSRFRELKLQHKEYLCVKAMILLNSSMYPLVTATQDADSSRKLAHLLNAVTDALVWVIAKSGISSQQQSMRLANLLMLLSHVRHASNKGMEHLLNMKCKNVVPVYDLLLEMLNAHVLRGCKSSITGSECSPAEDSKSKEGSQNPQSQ
smiles,measurement,setting,value
CCCC(CCC)(C(=O)OCC)C(=O)OCC,activation,[1],inconclusive: -1.58%
same,Potency,[2],inactive
same,Potency,[3],inactive
O=C(Nc1ccccc1)OCC(CN1CCCCC1)OC(=O)Nc1ccccc1 (stereo unspecified),Potency,[4],"inconclusive: 14.3 µM [cytotoxic, partial curve, poor fit]"
same,activation,[5],inconclusive: -10.5%
same,Potency,[6],active: 26.6 µM
same,Potency,[1],inactive
same,Potency,[7],inactive
same,Potency,[8],"inconclusive: 21.3 µM [cytotoxic, partial curve]"
same,Potency,[9],"inconclusive: 13.3 µM [inhibitor, full curve]"
same,Potency,[10],active: 26.6 µM
same,Potency,[11],inactive
same,Potency,[3],"inconclusive: 26.6 µM [cytotoxic, partial curve]"
CC(C)CCCC(C)CC=O (stereo unspecified),Potency,[7],inactive
same,Potency,[12],inactive
Clc1cc(Cl)c(-c2c(Cl)c(Cl)cc(Cl)c2Cl)cc1Cl,Potency,[7],inactive
same,Potency,[13],"inconclusive: 19 µM [rising, partial curve]"
NC(=O)CCCCC1CCSS1 (stereo unspecified),Potency,[14],"inconclusive: 0.477 µM [activator, full curve]"
same,Potency,[15],inactive
CCN(CC)c1ccc(C=O)cc1,Potency,[2],"inconclusive: 39.9 µM [inhibitor, partial curve]"
same,Potency,[16],inconclusive: 68.6 µM [activator]
same,Potency,[13],"inconclusive: 54.9 µM [cytotoxic, single point]"
same,Potency,[8],"inconclusive: 61.6 µM [cytotoxic, single point]"
same,Potency,[10],"inconclusive: 54.5 µM [cytotoxic, partial curve]"
same,Potency,[11],inactive
O=S(=O)(O)c1ccc(N=Nc2c(O)ccc3cc(S(=O)(=O)O)ccc23)cc1,Potency,[4],inactive
same,Potency,[15],"inconclusive: 34.8 µM [cytotoxic, partial curve, poor fit]"
same,Potency,[5],inactive
same,Potency,[2],"inconclusive: 63.5 µM [inhibitor, partial curve] and inconclusive: 71 µM [inhibitor, partial curve]"
same,Potency,[7],active: 54.7 µM and active: 30.6 µM
same,Potency,[17],"inconclusive: 45.2 µM [cytotoxic, partial curve] and inconclusive: 56.6 µM [cytotoxic, partial curve]"
same,Potency,[18],"inconclusive: 50.5 µM [cytotoxic, partial curve, poor fit]"
same,Potency,[13],"inconclusive: 21.9 µM [cytotoxic, partial curve]"
same,Potency,[8],"inconclusive: 39.1 µM [cytotoxic, partial curve, poor fit] and inconclusive: 21.9 µM [cytotoxic, partial curve]"
same,Potency,[11],"inconclusive: 2.17 µM [rising, full curve, poor fit]"
same,Potency,[19],"inconclusive: 44.8 µM [inhibitor, partial curve, poor fit]"
